# Measured values from paper PMC4336329 (PLoS ONE, 2015).
# Among all 310,000 compounds or so, about 14,000 (4.5%) showed an effect of 50% or more. Effects have a minus sign here. This is one part of the list.
# Biological target: human ether-à-go-go-related gene (hERG) potassium channel (human, UniProt Q12809)
# Experiment: primary screen, population patch clamp on CHO cells stably expressing hERG
# 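Note: peak tail current of the secondary pulse compared with the same well before compound.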
# Chain of human ether-à-go-go-related gene (hERG) potassium channel (Q12809 whole entry, looked up): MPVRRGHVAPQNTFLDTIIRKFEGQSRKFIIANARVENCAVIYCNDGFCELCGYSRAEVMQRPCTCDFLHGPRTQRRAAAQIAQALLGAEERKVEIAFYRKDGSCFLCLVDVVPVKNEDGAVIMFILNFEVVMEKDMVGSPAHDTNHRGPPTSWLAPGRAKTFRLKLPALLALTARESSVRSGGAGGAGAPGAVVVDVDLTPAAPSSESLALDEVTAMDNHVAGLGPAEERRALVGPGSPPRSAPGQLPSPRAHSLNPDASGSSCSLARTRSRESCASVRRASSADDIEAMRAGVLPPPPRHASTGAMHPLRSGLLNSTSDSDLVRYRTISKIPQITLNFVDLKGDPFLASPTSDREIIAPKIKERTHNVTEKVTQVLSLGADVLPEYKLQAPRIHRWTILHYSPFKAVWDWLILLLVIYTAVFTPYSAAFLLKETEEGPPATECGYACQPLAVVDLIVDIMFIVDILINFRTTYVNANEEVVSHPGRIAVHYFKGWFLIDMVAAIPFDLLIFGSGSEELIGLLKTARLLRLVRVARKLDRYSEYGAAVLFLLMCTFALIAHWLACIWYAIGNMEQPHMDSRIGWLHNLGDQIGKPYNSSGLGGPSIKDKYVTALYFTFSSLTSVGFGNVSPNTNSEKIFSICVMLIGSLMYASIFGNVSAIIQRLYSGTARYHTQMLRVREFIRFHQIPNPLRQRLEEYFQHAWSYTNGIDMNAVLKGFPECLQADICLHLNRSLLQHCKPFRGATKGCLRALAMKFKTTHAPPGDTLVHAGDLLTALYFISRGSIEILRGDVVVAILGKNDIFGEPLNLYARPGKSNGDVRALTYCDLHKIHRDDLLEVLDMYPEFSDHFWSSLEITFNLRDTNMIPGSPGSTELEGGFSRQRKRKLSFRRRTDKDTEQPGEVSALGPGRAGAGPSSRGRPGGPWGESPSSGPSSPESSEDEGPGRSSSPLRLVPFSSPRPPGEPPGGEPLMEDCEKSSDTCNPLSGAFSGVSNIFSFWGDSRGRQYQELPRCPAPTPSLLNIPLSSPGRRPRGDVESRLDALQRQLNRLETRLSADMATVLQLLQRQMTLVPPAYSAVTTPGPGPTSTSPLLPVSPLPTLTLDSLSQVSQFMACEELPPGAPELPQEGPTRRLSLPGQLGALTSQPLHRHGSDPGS
row,Compound,"hERG current change (%, negative = inhibition) at 10uM [%]"
1,CCCCCCCCCCCC(=O)NC(C(=O)OCC)C(O)c1cccc([N+](=O)[O-])c1 (stereo not drawn),11.8
2,CC(=O)c1cccc(S(=O)(=O)NCC(C)(C)N2CCOCC2)c1.O=C(O)C(=O)O,11.5
3,COC(=O)CCSc1cc(NCCOC(C)=O)c([N+](=O)[O-])c2nonc12,-25.6
4,COC(=O)C1=C(C)N(Cc2ccc(OC)cc2)C(=O)/C1=C\c1ccco1,9.35
5,Cc1nn(C)c(C)c1S(=O)(=O)NC1CCCC1,-12
6,O=C(O)C1CC1C(=O)N1CCN(c2ccc(Cl)c(Cl)c2)CC1 (stereo not drawn),5.27
7,N/C(CCN1CCCCC1)=N/O,-0.58
8,CCOC(=O)C1=C(C)C2C3C(=O)N(c4cc(C)ccc4C)C(=O)C3C1(C)C1C(=O)N(c3cc(C)ccc3C)C(=O)C21 (stereo not drawn),6.2
9,Cc1ccnc(NC(=O)CNC(=O)C23CC4CC(CC(C4)C2)C3)c1,-8.17
10,COc1c(C)cccc1C(=O)Nc1ccc(N2CCOCC2)c(Cl)c1,-21.2
11,Cn1c(=O)c2sccc2n2c(CCCC(=O)NCc3ccc(F)cc3)nnc12,28.9
12,COc1cc(NC(=O)CCN2CCOCC2)cc(OC)c1,21.4
13,CC(OC(=O)C1CCCCC1)C(=O)Nc1cccc([N+](=O)[O-])c1 (stereo not drawn),-4.48
14,COc1ccc(N(CC(=O)NCCC2=CCCCC2)S(=O)(=O)c2c(C)[nH]c(=O)[nH]c2=O)cc1,8.28
15,CN(Cc1ccccc1)C(=O)c1[nH]cnc1C(=O)NCC(=O)OC(C)(C)C,10.4
16,COc1cccc(-n2nnnc2SCC(=O)Nc2nc3c(s2)CCCC3)c1,3.59
17,COc1ccc2c(c1)CCC/C2=N\OC(=O)c1ccccc1F,1.16
18,COc1ccc(C2c3ccsc3CCN2C(C)=O)cc1 (stereo not drawn),3.26
19,Nc1nc(CSc2nnc(-c3cccc(F)c3)n2-c2ccccc2)nc(N2CCOCC2)n1,11.5
20,Cc1cc(C(=O)O/N=C(\N)c2ccncc2)ccc1[N+](=O)[O-],-22.9
21,NC(=O)CC(NC(=O)Cc1cccc2ccccc12)c1ccc(N2CCCCCCC2)c([N+](=O)[O-])c1 (stereo not drawn),-2.7
22,COc1ccc(F)cc1S(=O)(=O)n1nnc2ccccc21,3.56
23,C=CCn1c(=N)c(C(=O)OCC)cc2c(=O)n3cccc(C)c3nc21,-72.9
24,Cc1cc(C(=O)Nc2ccc(N3CCOCC3)c3nonc23)ccc1[N+](=O)[O-],-4.44
